This is an account of results in patent US20220008504A1, “METHODS AND COMPOSITIONS FOR TREATMENT OF ABERRANT HEMATOPOIESIS” (The Methodist Hospital, priority 2019, published 2022).

In experiment [1] the test system is SREBP2. Nature of the experiment: Immunoblot of SREBP2 activation in HUVECs. Type of experiment: cell-based, human. The text has this:
SS: secretion signal. FIGS. 3B and 3C show qRT-PCR analyses of srebf1 and srebf2 in the AGM regions of Aibp2 overexpression (FIG. 3B) or knockdown zebrafish (FIG. 3C). […] P: Srebp2 precursor; N: nuclear Srebp2.
Cellular cholesterol homeostasis is sustained by LDL cholesterol uptake, Srebp2-mediated cholesterol synthesis, and HDL-mediated cholesterol efflux. Since cholesterol pools in the plasma membrane and ER are interconnected, Applicants next probed the effect of cholesterol efflux on Srebp2 activation.

In experiment [2] the test system is srebf2. Description: srebf2 expression (mirrors Srebp2 transcriptional activity). The note with it: zebrafish, in vivo.
In experiment [3] the test system is HSC emergence. Nature of the experiment: HSC emergence, WISH of runx1 in the DA, with or without Srebp2 disruption. The note with it: FIG. 4C.
For experiment [4], the system named is Lin-Sca-1+c-Kit+ HSPCs. The arrangement: species or system mice. Particulars: mouse, in vivo.

Consider Methyl-β-cyclodextrin [MβCD], for which the SREBP2 activation result in experiment [1] is “robustly activated”.

For `CC(C)c1c(C(=O)Nc2ccccc2)c(-c2ccccc2)c(-c2ccc(F)cc2)n1CC[C@@H](O)C[C@@H](O)CC(=O)O` [Atorvastatin, atorvastatin], in experiment [2], the srebf2 expression result is on record as “markedly augmented”. The HSC emergence result in experiment [3] is given as “augmented”. The “atorvastatin-augmented HSC emergence under Srebp2 disruption” value in experiment [3] (Srebp2 disruption) is recorded as “abolished”.

With `C=C(C)[C@@H]1CC[C@]2(CO)CC[C@]3(C)[C@H](CC[C@@H]4[C@@]5(C)CC[C@H](O)C(C)(C)[C@@H]5CC[C@]43C)[C@@H]12` [betulin], the “WD-induced augmentation of HSPC frequency” value in experiment [4] is “abolished”.
